# Laboratory results as given in the supplement of paper PMC4604168 (melanoma cell lines).
# This is one part of the list. Most values come without repeats; read them as rough.
# Columns and labels:
# Experiment in all cases: cell count relative to DMSO control; melanoma cells; higher = more viable cells
# Settings in all cases: library dose: low library concentration; 72 h
# COLO792 = tested on: COLO792
# COLO800 = tested on: COLO800
# COLO829 = tested on: COLO829
# G361 = tested on: G361
# IPC-298 = tested on: IPC-298
# IST-MEL1 = tested on: IST-MEL1
# LB2518-MEL = tested on: LB2518-MEL
# LOXIMVI = tested on: LOXIMVI
# MEL-HO = tested on: MEL-HO
# MZ2-MEL = tested on: MZ2-MEL
# MeWo = tested on: MeWo
# RPMI7951 = tested on: RPMI7951
# RVH-421 = tested on: RVH-421
# SkMel28 = tested on: SkMel28
# SkMel30 = tested on: SkMel30
# SkMel5 = tested on: SkMel5
# UACC257 = tested on: UACC257
# UACC62 = tested on: UACC62
# WM115 = tested on: WM115
# WM1716 = tested on: WM1716
# 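Note: cell number obtained by counting DAPI-stained nuclei in high-throughput microscope images with image analysis software, screen run in 1,536-well plates.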
SMILES,cell count (COLO792),cell count (COLO800),cell count (COLO829),cell count (G361),cell count (IPC-298),cell count (IST-MEL1),cell count (LB2518-MEL),cell count (LOXIMVI),cell count (MEL-HO),cell count (MZ2-MEL),cell count (MeWo),cell count (RPMI7951),cell count (RVH-421),cell count (SkMel28),cell count (SkMel30),cell count (SkMel5),cell count (UACC257),cell count (UACC62),cell count (WM115),cell count (WM1716)
"O=S(=O)(c1ccccc1)N(CC(F)(F)F)c1ccc(C(O)(C(F)(F)F)C(F)(F)F)cc1 + O=c1cc(-c2cccc3c2Sc2ccccc2S3)oc(N2CCOCC2)c1 [KU55933] (first compound 1.4 µM, partner dose 1 µM)",99.6%,142%,87.8%,92.7%,93.7%,110%,122%,121%,90.7%,103%,92.9%,95.6%,103%,94.4%,95.7%,85.2%,90%,90%,97.9%,104%
"COc1cc2ncnc(Nc3ccc(Oc4ccccc4)cc3)c2cc1OC + O=C(O)C(=O)Nc1sc2c(c1C(=O)O)CCNC2 [TCS401] (first compound 2 µM, partner dose 1.66667 µM)",96.1%,135%,149%,113%,103%,107%,153%,68.7%,89%,104%,112%,133%,118%,92.5%,109%,116%,116%,95%,120%,130%
"CCN(CC)CCCCNc1ncc2cc(-c3cc(OC)cc(OC)c3)c(NC(=O)NC(C)(C)C)nc2n1 + O=c1cc(-c2cccc3c2Sc2ccccc2S3)oc(N2CCOCC2)c1 [KU55933] (first compound 0.1 µM, partner dose 1 µM)",90.2%,63.8%,116%,107%,103%,106%,103%,130%,96.6%,105%,106%,108%,103%,99.3%,73.3%,106%,96.9%,118%,104%,120%
"CCN(CC)CCCCNc1ncc2cc(-c3cc(OC)cc(OC)c3)c(NC(=O)NC(C)(C)C)nc2n1 + O=C(O)C(=O)Nc1sc2c(c1C(=O)O)CCNC2 [TCS401] (first compound 0.1 µM, partner dose 1.66667 µM)",89.1%,110%,106%,97.6%,106%,109%,106%,107%,95.3%,104%,110%,121%,89.5%,93.8%,99.5%,89.4%,81.4%,101%,104%,123%
"Oc1cc(-c2nc(-c3ccccc3)[nH]c2-c2ccncc2)ccc1Cl + Cn1cc(/C=C2\C(=O)Nc3cccnc32)c2ccccc21 [GW441756] (first compound 0.2 µM, partner dose 0.4 µM)",104%,80.5%,101%,92.8%,108%,89.1%,112%,107%,86%,90.9%,113%,119%,64.9%,73%,80.7%,102%,83.3%,52.6%,73.8%,120%
"N#Cc1c(O)c2c(-c3ccc(-c4ccccc4O)cc3)csc2[nH]c1=O + Oc1nc(-c2ccc(C(F)(F)F)cc2)nc2c1CSCC2 [XAV939] (first compound 2 µM, partner dose 2 µM)",85.5%,91.5%,109%,98.7%,101%,108%,98.9%,223%,83.8%,90.6%,107%,96.1%,104%,98%,118%,88.8%,91.4%,112%,102%,83.4%
"COc1ccc(COc2ccc(Cc3cnc(N)nc3N)cc2OC)cc1 + Oc1cc(-c2nc(-c3ccccc3)[nH]c2-c2ccncc2)ccc1Cl [L779450] (first compound 1 µM, partner dose 0.2 µM)",93.1%,86.7%,121%,93.7%,83%,113%,99.7%,94.8%,93.5%,79.2%,104%,104%,101%,80.4%,97.9%,103%,90.8%,70.7%,89.5%,120%
"O=C1NC(=O)/C(=C/c2ccc(-c3ccc(F)cc3O)o2)S1 + CC(C)CCN1c2nc(Nc3cc(F)c(O)c(F)c3)ncc2N(C)C(=O)C1C [BID1870] (first compound 1 µM, partner dose 0.2 µM)",99.4%,128%,98.5%,95.1%,92%,103%,106%,56.9%,83.7%,100%,10.1%,105%,106%,84.6%,80.3%,92.9%,75.4%,83.6%,104%,88.4%
"N#Cc1c(O)c2c(-c3ccc(-c4ccccc4O)cc3)csc2[nH]c1=O + c1cc(-c2cnn3cc(-c4ccc(OCCN5CCCCC5)cc4)cnc23)ccn1 [Dorsomorphin] (first compound 2 µM, partner dose 0.4 µM)",97.4%,92.6%,88%,101%,103%,97.5%,93.4%,108%,102%,98.8%,99.3%,94.4%,94.4%,85.5%,95.8%,96.2%,88.5%,89.9%,103%,112%
"COC(=O)c1sccc1S(=O)(=O)Nc1ccc(Nc2ccccc2)cc1OC + O=S(=O)(c1ccccc1)N(CC(F)(F)F)c1ccc(C(O)(C(F)(F)F)C(F)(F)F)cc1 [T0901317] (first compound 1 µM, partner dose 1.4 µM)",102%,96.9%,77.5%,99%,92.3%,103%,99.7%,128%,103%,96.8%,109%,101%,93%,74.2%,105%,90.3%,103%,94.4%,101%,119%
"COc1ccc(-c2ccc3c(N4CCOCC4)nc(N4C[C@@H](C)O[C@@H](C)C4)nc3n2)cc1CO + Oc1cc(-c2nc(-c3ccccc3)[nH]c2-c2ccncc2)ccc1Cl [L779450] (first compound 0.02 µM, partner dose 0.2 µM)",97.3%,104%,99.6%,85.3%,71.5%,101%,84.6%,109%,79.6%,76.8%,97.7%,113%,123%,97.2%,85.5%,93.2%,82.9%,88.4%,97.4%,101%
"COc1cc(N2CCC(N3CCN(C)CC3)CC2)ccc1Nc1ncc(Cl)c(Nc2ccccc2S(=O)(=O)C(C)C)n1 + O=c1cc(-c2cccc3c2Sc2ccccc2S3)oc(N2CCOCC2)c1 [KU55933] (first compound 0.08 µM, partner dose 1 µM)",113%,83.8%,85%,86.9%,96.4%,91.6%,123%,121%,87.7%,96%,72.5%,81.7%,114%,83.2%,92.7%,95.4%,72.7%,91.7%,90.2%,91.1%
"O=C(O)C(=O)Nc1sc2c(c1C(=O)O)CCNC2 + Cn1cc(/C=C2\C(=O)Nc3cccnc32)c2ccccc21 [GW441756] (first compound 1.66667 µM, partner dose 0.4 µM)",108%,113%,97.9%,84.4%,96.8%,97.7%,75.2%,125%,87.6%,89.8%,114%,101%,90.2%,74.3%,101%,82.5%,92.6%,89.7%,106%,104%
"Cc1cc([N+](=O)[O-])ccc1NS(=O)(=O)c1cc(Cl)ccc1Cl + Oc1nc(-c2ccc(C(F)(F)F)cc2)nc2c1CSCC2 [XAV939] (first compound 1 µM, partner dose 2 µM)",80.1%,85.7%,98.5%,86.4%,84.1%,85%,102%,70.7%,75.5%,92.8%,86.7%,87%,83.2%,96.5%,120%,84.1%,81.9%,89.7%,77.3%,71.4%
"Cc1cc([N+](=O)[O-])ccc1NS(=O)(=O)c1cc(Cl)ccc1Cl + c1cc(-c2cnn3cc(-c4ccc(OCCN5CCCCC5)cc4)cnc23)ccn1 [Dorsomorphin] (first compound 1 µM, partner dose 0.4 µM)",73.6%,123%,108%,78.5%,90.8%,79.7%,94.2%,96.3%,89.1%,95%,84.5%,105%,115%,72.3%,91.6%,85.9%,64.7%,79.4%,78%,96.3%
"COc1ccc(-c2ccc3c(N4CCOCC4)nc(N4C[C@@H](C)O[C@@H](C)C4)nc3n2)cc1CO + O=c1cc(-c2cccc3c2Sc2ccccc2S3)oc(N2CCOCC2)c1 [KU55933] (first compound 0.02 µM, partner dose 1 µM)",92.8%,85.1%,105%,107%,106%,101%,142%,102%,93.3%,97.3%,89.7%,110%,127%,90%,86.2%,97.9%,90.3%,99.1%,92.7%,106%
"COc1ccc2c(c1)CCC1C2CCC2(C)C(NCCCCCCN3C(=O)C=CC3=O)CCC12 (stereo not given) + COc1cc2ncnc(Nc3ccc(Oc4ccccc4)cc3)c2cc1OC [SrcI1] (first compound 0.4 µM, partner dose 2 µM)",86.8%,123%,86%,103%,93.9%,87.5%,115%,70.8%,103%,94.1%,90.8%,69.8%,121%,82.8%,93.5%,104%,91.9%,105%,92.8%,93.3%
"COc1ccc(-c2ccc3c(N4CCOCC4)nc(N4C[C@@H](C)O[C@@H](C)C4)nc3n2)cc1CO + CCN(CC)CCCCNc1ncc2cc(-c3cc(OC)cc(OC)c3)c(NC(=O)NC(C)(C)C)nc2n1 [PD173074] (first compound 0.02 µM, partner dose 0.1 µM)",83.7%,82%,66.3%,92.3%,101%,99.8%,91.1%,144%,79.4%,95.8%,97%,93.2%,111%,87.6%,96.5%,105%,95.6%,86.4%,97.7%,106%
